# Experimental data taken from PMC6919601, “Identification of Plasmodium dipeptidyl aminopeptidase allosteric inhibitors by high throughput screening” (PLoS ONE, 2019).
# Screen size: about 110,000 compounds; about 230 (0.21%) showed an effect of 50% or more. The list shows a part of the results.
# Biological target: DPAP1 (Plasmodium falciparum, UniProt Q8IIJ9)
# Assay: primary screen, percent inhibition; read by cleavage of a fluorogenic dipeptide substrate; higher = more effect of the substance
# Set-up: species or system P. falciparum D10 trophozoite lysates; single well
# 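Further: 30 min substrate incubation versus DMSO and 10 µM JCP410 controls.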
# Sequence of DPAP1 (Q8IIJ9 whole entry, looked up): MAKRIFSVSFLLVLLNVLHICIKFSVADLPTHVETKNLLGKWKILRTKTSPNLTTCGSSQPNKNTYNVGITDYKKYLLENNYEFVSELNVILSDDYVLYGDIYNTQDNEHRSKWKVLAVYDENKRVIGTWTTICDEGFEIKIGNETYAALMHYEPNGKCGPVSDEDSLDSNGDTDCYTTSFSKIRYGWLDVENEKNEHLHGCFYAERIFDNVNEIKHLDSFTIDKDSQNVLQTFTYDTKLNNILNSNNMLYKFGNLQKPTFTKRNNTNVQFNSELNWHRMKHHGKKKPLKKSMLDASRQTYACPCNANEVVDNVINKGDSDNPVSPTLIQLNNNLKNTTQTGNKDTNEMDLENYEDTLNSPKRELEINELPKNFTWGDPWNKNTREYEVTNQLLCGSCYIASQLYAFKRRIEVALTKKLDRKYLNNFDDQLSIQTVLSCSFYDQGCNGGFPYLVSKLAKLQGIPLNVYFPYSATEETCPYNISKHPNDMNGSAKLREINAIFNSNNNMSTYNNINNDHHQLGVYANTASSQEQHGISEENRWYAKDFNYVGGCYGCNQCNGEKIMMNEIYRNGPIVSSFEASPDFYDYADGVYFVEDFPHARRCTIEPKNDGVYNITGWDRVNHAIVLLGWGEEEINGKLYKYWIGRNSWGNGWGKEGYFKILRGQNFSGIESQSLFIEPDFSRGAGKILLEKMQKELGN
row,Structure (SMILES),% Inhibition @ 10 uM [%]
1,CCOC(=O)c1nn(-c2ccc(Cl)cc2)c2cc(Cl)c([N+](=O)[O-])cc2c1=O,-0.233
2,COC(=O)c1sccc1NC(=O)Cn1cnc2c1c(=O)n(C)c(=O)n2C,-3.5
3,C=CCn1c(CCNC(=O)C2CCCCC2)nc2ccccc21,3.24
4,O=C(O)c1ccc(CN2CCC(Cc3ccccc3)CC2)cc1,0.708
5,O=C(c1ccc(CN2CCc3ccccc3C2)cc1)N1CCN(Cc2ccccc2)CC1,-3.63
6,O=C(O)/C=C\C(=O)Nc1ccc(-c2ccc(Cl)cc2)cc1,4.44
7,O=C(Nc1cc(Cl)c(Cl)cc1Cl)c1ccccc1Cl,1.91
8,CCC(C)NC(=O)CCC(=O)n1ncc2c(C)cccc21 (stereo not shown),1.68
9,CCn1cc(CNC(=O)C(Sc2ccccc2)c2ccccc2)cn1 (stereo not shown),-1.04
10,Oc1cc(-c2ccc(Cl)cc2)nnc1O,-4.21
11,CC(C)CC(NS(=O)(=O)c1cccs1)C(=O)O (stereo not shown),-3.23
12,O=C(CC1(c2ccc(Cl)cc2)C(=O)c2ccccc2C1=O)N1CCCCC1,2
13,O=C(O)c1ccc2c(c1)C(=O)N(c1ccc(-c3nc4ccccc4[nH]3)cc1)C2=O,2.92
14,Cc1cccc(/C=C2/NC(=O)N(Cc3ccccc3F)C2=O)c1,-3.04
15,O=C(Nc1nsc(-c2ccccc2)n1)c1cccs1,-2.75
16,Cc1nc(O)c(C(=O)/C=C/c2ccccc2)c2c1CCCC2,-2.54
17,O=C(NCCN1CCOCC1)c1cc(-c2ccccc2)nc2ccccc12,2.08
18,CCS(=O)(=O)N1CCC2(CC1)OC(=O)C(C)=C2C(=O)N1CCC(N2CCCCC2)CC1,-0.166
19,CCC(CC)=C(C#N)C(=O)Nc1cccc(C(F)(F)F)c1,-4.6
20,COCCCNC(=O)c1cc2c(s1)-c1c(C)cccc1OC2,-1.37
21,Cc1noc2ncnc(N3CCCC(C(=O)O)C3)c12 (stereo not shown),-5.76
22,CCOc1ccccc1-n1c(CN2CCN(C(=O)c3ccco3)CC2)nc2ccccc2c1=O,3.58
23,CCN(CC)S(=O)(=O)c1ccc(NC(=O)c2ccccc2Cl)cc1,2.13
24,COc1cccc(CNC(=O)C2CCCN(S(=O)(=O)N3CCC4(CC3)OCCO4)C2)c1OC (stereo not shown),1.17
25,Cc1noc2ncnc(N3CCCC(C(=O)NCc4ccccc4Cl)C3)c12 (stereo not shown),-4.32
26,Cc1cc(NC(=O)C2CCN(C(=O)c3cnn(-c4ccccc4)c3-n3cccc3)CC2)no1,-1.58

row,Structure (SMILES),% Inhibition @ 10 uM [%]
1,O=C(O)C1Cc2ccccc2CN1C(=O)c1ccccc1 (stereo not shown),0.131
2,CC(C)CC(C(=O)NC1(C#N)CC1)c1cccc(-c2ccc(N3CCN(CCO)CC3)cc2)c1 (stereo not shown),-1.41
3,O=C(c1ccc(CS(=O)(=O)c2ccc(Br)cc2)o1)N1CCC2(CC1)OCCO2,3.77
4,CC(C)(C)c1ccccc1OCCCCCCN1CCCCC1,-0.414
5,CCCN(CCC)C(=O)c1c(C)[nH]c(C(=O)OCC)c1C,4.88
6,Cc1ccnc(SCC(=O)N2c3ccccc3CCc3ccccc32)n1,-3.39
7,CC(C)(O)C1=NOC(c2ccccc2)C1 (stereo not shown),-1.47
8,CS(=O)(=O)N(CC(=O)Nc1cccnc1)c1cccc(F)c1,-2.37
9,CCOc1cc(C(=O)Nc2ccc(Br)cn2)cc(OCC)c1OCC,11.8
10,COc1cccc(CCNC(=O)c2ccco2)c1,0.00178
11,CC(C)CNS(=O)(=O)c1ccc(CCC(=O)Nc2ccc(F)cc2)cc1,4.22
12,COc1cccc(-c2nc(-c3ccc(C(F)(F)F)cc3)no2)c1,2.62
13,O=C(Cn1nc(-c2ccccc2)ccc1=O)N1CCOCC1,3.79
14,CCOC(=O)C1=C2SCC(=O)N2C(N)=C(C(=O)OC(C)C)C1,-1.6
15,COc1ccc(CCNC(=O)Cn2ncn3cccc3c2=O)cc1OC,-3.93
16,COc1ccc(S(=O)(=O)c2c(O)nc3cc(C(=O)O)ccc3c2O)cc1,-3.13
17,O=C(c1cccc(F)c1)N1CCN(Cc2ccc(Br)cc2)CC1,-3.76
18,COC(=O)C1C(c2ccc(OC)c(OC)c2)NC(c2ccc(OC)c(OC)c2)C(C(=O)OC)S1(=O)=O (stereo not shown),0.035
19,CCCOc1cccc(-c2nc3c(=O)n(C)c(=O)n(C)c3[nH]2)c1,-1.75
20,CC1CCCCC1NC(=O)C1CCN(S(C)(=O)=O)CC1 (stereo not shown),-6.88
21,CCOc1ccccc1OCc1nn2c(COc3ccccc3)nnc2s1,7.97
22,CC1CCCC(C)N1C(=O)Cc1ccccc1 (stereo not shown),0.605
23,CCCN(CCC)S(=O)(=O)c1c(C(=O)OCC)c(C)n(C)c1C,2.6
24,COc1ccc(-c2csc(/C(C#N)=C/Nc3ccc(C(N)=O)cc3)n2)cc1,3.72
25,COc1cccc(C2C(C#N)=C(N)OC3=C2C(=O)CCC3)c1OC (stereo not shown),-5.5
26,CC1CCC(N2CCCC(CO)C2)CC1 (stereo not shown),-6.85

row,Structure (SMILES),% Inhibition @ 10 uM [%]
1,COc1ccc(/C=C(\S)C(=O)O)cc1,17.9
2,CCOC(=O)c1cnc2c(OC)cc3c4ccccc4oc3c2c1O,0.484
3,O=C1CCC(C(=O)O)C(Cc2ccccc2)C1 (stereo not shown),1.26
4,O=c1c(/C=C\c2nc3ccccc3c(=O)n2-c2ccccc2)coc2ccccc12,-13.3
5,COc1ccc(C(=O)CC(c2ccccc2)C2C(=O)CCCC2=O)cc1 (stereo not shown),15.4
6,CC(=O)OC(C)(C#CCN1CCOCC1)C(C)C (stereo not shown),6.8
7,O=C1N=C(N2CCOCC2)S/C1=C/c1ccc(-c2ccc(C(=O)O)c(Cl)c2)o1,18.3
8,Cc1ccc(C)c(NC(=O)c2csc3c2CCCC3)c1,2.4
9,O=c1c2c([nH]c(=S)n1Cc1ccccc1)-c1ccccc1CC21CCCC1,-4.32
10,O=C(O)c1ccccc1C(=O)OCCCCOC(=O)c1ccccc1C(=O)O,-5.2
11,CCOc1ccccc1N(CC(=O)N1CCCC1)S(=O)(=O)c1ccc(C)cc1,-6.75
12,FC(F)(F)c1cc(-c2cccs2)nc2c(-c3ccccc3)cnn12,3.16
13,O=C(c1cnn2c1NC(c1ccc(Br)cc1)CC2C(F)(F)F)N1CCCCCC1 (stereo not shown),0.512
14,CCN(CCN(C)C)Cc1cccc(F)c1,2.7
15,O=C(NCc1ccccc1)c1cccc(C(=O)NCc2ccccc2)n1,-0.318
16,CCc1ccc(OCC(=O)Nc2ccc(S(N)(=O)=O)cc2)c(Br)c1,-6.17
17,CCN1CCN(C(=O)Cn2c(=O)c3cccn3c3cccnc32)CC1,6.91
18,ONc1nc(O)cc(-c2ccccc2)n1,1.91
19,CSc1ncc(C(=O)NC2CCN(Cc3ccccc3)CC2)c(C(F)(F)F)n1,4.32
20,COc1cccc(N(CC(=O)NC(C)c2ccccc2)S(=O)(=O)c2ccc(C)cc2)c1 (stereo not shown),-4.59
21,COc1ccccc1C(=O)NCc1nc(-c2ccc(Cl)cc2)no1,2.14
22,Cc1ccc(C(=O)Nc2ccc(S(=O)(=O)N3CCCC3)cc2)cc1Br,1.94
23,COc1cc2c(cc1OC)C(Nc1ccc(F)c(F)c1)=NC(C)(C)C2,-6.37
24,NCC1COc2ccccc2O1 (stereo not shown),-1.96
25,Cc1cc(C)c2nc(N3CCCC(C(=O)N4CCC(C(N)=O)CC4)C3)sc2c1 (stereo not shown),7.91
26,CC1CCCN(CC(O)COc2ccc(Cl)cc2)C1 (stereo not shown),5.31

row,Structure (SMILES),% Inhibition @ 10 uM [%]
1,Cc1nn2c(-c3ccccc3)c(S(=O)(=O)c3ccccc3)cnc2c1Br,1.64
2,CCc1ccccc1NC1=C(Cl)C(=O)N(c2ccc(OC)cc2)C1=O,1.36
3,CC(C(=O)NCCCc1ccccc1)n1cccc1C(=O)c1ccccc1 (stereo not shown),-5.89
4,Cc1ccc(C(=O)CC(C(=O)O)c2cn(CCC#N)c3ccccc23)cc1 (stereo not shown),3.63
5,NS(=O)(=O)c1ccc(NC(=O)C(c2ccccc2)c2ccccc2)cc1,0.0974
6,CC(=O)Nc1nc2nc(C)cc(C)n2n1,-9.18
7,CNCC(=O)c1c[nH]c2ccccc12,-3.13
8,CCOc1ccc(C(=O)NCCc2ccc(OC)c(OC)c2)cc1,-4.72
9,CC(=O)CC(=O)Nc1ccccc1F,-1.92
10,CC1=C(C(=O)Nc2ccc(F)cc2F)C(c2cccc(Br)c2)C2=C(O)CCCC2=N1 (stereo not shown),-7.3
11,CCOC(=O)C1=C(C)OC2(O)c3ccccc3C(=O)C12O (stereo not shown),1.66
12,COc1cc(OC)c(-n2nnc(-c3nsc(NC(=O)c4ccccc4)n3)c2C)cc1Cl,0.351
13,CCc1ccccc1NC(=O)CN(c1ccc(Cl)cc1)S(C)(=O)=O,-2.44
14,COc1ccc(/C=C/C(=O)NC(=S)Nc2ccc(S(N)(=O)=O)cc2)cc1OC,3.7
15,CCC(=O)Nc1ccc(S(=O)(=O)Nc2cc(C)on2)cc1,0.983
16,CCCCN(C)C(=O)Cn1cnc2onc(-c3ccc(F)cc3)c2c1=O,4.23
17,CC(C)C[C@H](NC(c1ccc(Br)cc1)c1nccs1)C(=O)NC1(C#N)CC1 (stereo partly shown),4.45
18,CC(=O)c1ccc(NC(=O)COc2ccc(Br)cc2C)cc1,-4.02
19,CCCCNC(=O)c1ccc2c(c1)ncn2C1CCCC1,2.05
20,O=C(NC1CCCCC1)c1cccc(S(=O)(=O)N2CC(c3ccccc3)CC2=O)c1 (stereo not shown),-0.834
21,c1ccc2c(NCc3ccncc3)cccc2c1,3.96
22,CCCOc1ccc(C(=O)N2CCN(Cc3ccc4c(c3)OCO4)CC2)cc1,0.231
23,COCCN1Cc2cccc(C(=O)Nc3cccnc3)c2C1=O,-6.62
24,CC(C)CC(NC(=O)/C=C/c1c[nH]cn1)C(=O)NCC#N (stereo not shown),0.744
25,CN(C)c1ccc(C(=O)C(O)c2ccc(C(C)(C)C)cc2)cc1 (stereo not shown),-5.44
